In the supplement of paper PMC4996465:
Viability of KB3-1 and Nalm-6 cells after 48 h of drug alone (CellTiter-Glo), 11 doses over about 4.5 log units. % of DMSO wells, lower = more cell loss; AC50 from the fitted curve, lower = more potent. No active / inactive call. Nalm-6 was screened in two runs. AC50 is listed only for well-fitted inhibitory curves. KB3-1 is a HeLa-derived carcinoma line, Nalm-6 a B-cell precursor leukaemia line.

Tests used:
KB3-1 [1] = experiment: viability (% of DMSO control); higher = more viable cells
Protocol: (§1)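 Eleven-dose screen of the NCATS MIPE 3 library on cells without co-treatment; CellTiter-Glo after 48 h, as % of DMSO wells.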

Nalm-6 [2] = experiment: as above
Protocol: as §1

KB3-1 [3] = experiment: log AC50 of viability decrease (48 h) (log10 M); higher = less potent
Protocol: (§2)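 Eleven-dose screen of the NCATS MIPE 3 library on cells without co-treatment; CellTiter-Glo after 48 h. AC50 from the curve fit; only inhibitory curves of the better fit classes are listed.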

Nalm-6 [4] = experiment: as above
Protocol: as §2

SMILES	viability (KB3-1 [1]; 0.00078 µM)	viability (KB3-1 [1]; 0.00234 µM)	viability (KB3-1 [1]; 0.00702 µM)	viability (KB3-1 [1]; 0.0211 µM)	viability (KB3-1 [1]; 0.0632 µM)	viability (KB3-1 [1]; 0.19 µM)	viability (KB3-1 [1]; 0.569 µM)	viability (KB3-1 [1]; 1.71 µM)	viability (KB3-1 [1]; 5.12 µM)	viability (KB3-1 [1]; 15.4 µM)	viability (KB3-1 [1]; 46.1 µM)	viability (Nalm-6 [2]; run: 1, 0.00078 µM)	viability (Nalm-6 [2]; run: 1, 0.00234 µM)	viability (Nalm-6 [2]; run: 1, 0.00702 µM)	viability (Nalm-6 [2]; run: 1, 0.0211 µM)	viability (Nalm-6 [2]; run: 1, 0.0632 µM)	viability (Nalm-6 [2]; run: 1, 0.19 µM)	viability (Nalm-6 [2]; run: 1, 0.569 µM)	viability (Nalm-6 [2]; run: 1, 1.71 µM)	viability (Nalm-6 [2]; run: 1, 5.12 µM)	viability (Nalm-6 [2]; run: 1, 15.4 µM)	viability (Nalm-6 [2]; run: 1, 46.1 µM)	viability (Nalm-6 [2]; run: 2, 0.00078 µM)	viability (Nalm-6 [2]; run: 2, 0.00234 µM)	viability (Nalm-6 [2]; run: 2, 0.00702 µM)	viability (Nalm-6 [2]; run: 2, 0.0211 µM)	viability (Nalm-6 [2]; run: 2, 0.0632 µM)	viability (Nalm-6 [2]; run: 2, 0.19 µM)	viability (Nalm-6 [2]; run: 2, 0.569 µM)	viability (Nalm-6 [2]; run: 2, 1.71 µM)	viability (Nalm-6 [2]; run: 2, 5.12 µM)	viability (Nalm-6 [2]; run: 2, 15.4 µM)	viability (Nalm-6 [2]; run: 2, 46.1 µM)	log AC50 of viability decrease (KB3-1 [3])	log AC50 of viability decrease (Nalm-6 [4]; run: 1)	log AC50 of viability decrease (Nalm-6 [4]; run: 2)
O=C(Nc1ccc(F)c(C(F)(F)F)c1)Nc1nnc(-c2ccncc2)s1	99.1%	104%	105%	109%	99.2%	94.7%	105%	85.9%	90.1%	83%	73.8%	89.2%	96.1%	106%	109%	104%	103%	106%	88.9%	81.6%	71.9%	55.1%	89.3%	91.4%	93.3%	101%	99.8%	103%	87.3%	75.1%	56.2%	52.3%	43.5%	-5.23	-4.98	-5.68
CC(C)[C@]12O[C@H]1[C@@H]1O[C@]13[C@]1(O[C@H]1C[C@H]1C4=C(CC[C@@]13C)C(=O)OC4)[C@@H]2O [Triptolide]	108%	99.6%	67.4%	15.5%	15.9%	19.2%	18.5%	20.5%	21.3%	19.8%	22.4%	87.9%	82%	31%	6.57%	18.3%	24.3%	21.3%	19.3%	20.2%	16.9%	14.8%	102%	92.5%	36.8%	6.17%	18.3%	35.8%	32.3%	31.6%	25.1%	32.2%	24.6%	-8.13	-8.33	-8.38
O=C(O)c1ccc2cc(-c3ccc(O)c(C45CC6CC(CC(C6)C4)C5)c3)ccc2c1 [AHPN]	97.4%	106%	102%	104%	96.5%	92.3%	104%	95.6%	76.1%	68.2%	11.4%	96.7%	113%	107%	107%	71.3%	2.72%	1.54%	0.939%	0.862%	0.676%	-0.893%	95.9%	114%	106%	113%	95.6%	4.33%	3.66%	4.46%	3.1%	4.68%	1.62%	-4.73	-7.08	-7.03
C[C@]1(O)CC(C1)C2=NC(=C3[N]2C=CN=C3N)C4=CC5=C(C=C4)C=CC(=N5)C6=CC=CC=C6 (stereo not given) [Linsitinib]	99.1%	102%	101%	101%	94.3%	87.9%	92.3%	83.9%	78.6%	78.3%	48.3%	110%	109%	117%	118%	103%	114%	114%	113%	94.7%	95.9%	5.37%	109%	105%	104%	105%	106%	99.2%	106%	100%	91.9%	81.1%	2.64%	-4.73	-4.63	-4.53
Cc1ccc(C(N)=O)cc1Nc1nccc(-c2cn(C(C)C)c3cnccc23)n1	96.2%	97.9%	94.6%	95.5%	93.2%	98.8%	102%	103%	60.3%	31.4%	14.7%	92%	108%	111%	99.4%	112%	122%	102%	97.3%	38.7%	2.1%	2.44%	102%	106%	106%	97%	109%	111%	103%	90.5%	13.4%	0.878%	2.86%	-5.13	-5.38	-5.58
C#Cc1cccc(Nc2ncnc3cc(OC)c(OCCCCCCC(=O)NO)cc23)c1 [CUDC-101]	102%	104%	99.1%	102%	95.3%	80.5%	52.9%	26.6%	11.5%	9.23%	6.76%	112%	107%	112%	110%	90.6%	25.3%	4.53%	2.65%	2.02%	-0.268%	-0.504%	105%	108%	106%	106%	95%	29.5%	3.46%	1.78%	1.19%	-0.0885%	0.151%	-6.28	-6.93	-6.88
Nc1cc(C(F)(F)F)c(-c2cc(N3CCOCC3)nc(N3CCOCC3)n2)cn1 [BKM-120]	104%	107%	105%	109%	101%	91.3%	74.6%	50.7%	20.1%	18.5%	20.3%	127%	121%	114%	123%	106%	92.6%	76.6%	51.6%	28.9%	24.9%	11.7%	99.3%	104%	105%	106%	97.9%	95.8%	76.6%	36.7%	18.7%	13.9%	3.21%	-6.03	-6.08	-5.98
Cc1nc2cnc3ccc(C#Cc4cccnc4)cc3c2n1-c1ccc(C(C)(C)C#N)cc1 [BAG-956]	104%	104%	105%	103%	76.5%	63.8%	47.9%	43%	40%	33%	27.8%	117%	116%	117%	121%	99.7%	89.3%	57.6%	50%	40.9%	14%	5.65%	107%	104%	112%	112%	105%	85.2%	71.7%	49.6%	40.1%	9.95%	0.809%	-6.88	-6.03	-5.73
COC(=O)c1ccc2c(c1)NC(=O)/C2=C(\Nc1ccc(N(C)C(=O)CN2CCN(C)CC2)cc1)c1ccccc1 [Vargatef]	101%	103%	106%	99%	87.9%	86.7%	64%	39.7%	33.3%	34.6%	1.59%	101%	96.5%	112%	116%	110%	80.6%	31.4%	7.95%	4.85%	3.8%	1.18%	99.5%	104%	100%	103%	96.1%	58.2%	17%	5.2%	4.29%	3.82%	1.1%	-5.93	-6.48	-6.68
CC(C)C[C@H](NC(=O)CNC(=O)c1cc(Cl)ccc1Cl)B(O)O [Ixazomib]	103%	103%	105%	96.6%	70%	43.1%	20.2%	12.5%	7.63%	7.31%	4.4%	86.1%	91.1%	92%	16.9%	5.8%	5.99%	6.73%	7.05%	6.86%	6.79%	5.04%	109%	117%	119%	48%	11.8%	5.18%	5.42%	5.31%	5.13%	5.01%	4.03%	-6.93	-7.83	-7.73
